# Hit rate of the full screen: of about 310,000 compounds, about 2,200 (0.71%) showed an effect of 50% or more. The effect is printed as a negative number. The list shows a part of the results.
# Target: human ether-à-go-go-related gene (hERG) potassium channel (human, UniProt Q12809)
# Assay: primary screen, population patch clamp on CHO cells stably expressing hERG
# human ether-à-go-go-related gene (hERG) potassium channel, sequence (Q12809 whole entry, looked up): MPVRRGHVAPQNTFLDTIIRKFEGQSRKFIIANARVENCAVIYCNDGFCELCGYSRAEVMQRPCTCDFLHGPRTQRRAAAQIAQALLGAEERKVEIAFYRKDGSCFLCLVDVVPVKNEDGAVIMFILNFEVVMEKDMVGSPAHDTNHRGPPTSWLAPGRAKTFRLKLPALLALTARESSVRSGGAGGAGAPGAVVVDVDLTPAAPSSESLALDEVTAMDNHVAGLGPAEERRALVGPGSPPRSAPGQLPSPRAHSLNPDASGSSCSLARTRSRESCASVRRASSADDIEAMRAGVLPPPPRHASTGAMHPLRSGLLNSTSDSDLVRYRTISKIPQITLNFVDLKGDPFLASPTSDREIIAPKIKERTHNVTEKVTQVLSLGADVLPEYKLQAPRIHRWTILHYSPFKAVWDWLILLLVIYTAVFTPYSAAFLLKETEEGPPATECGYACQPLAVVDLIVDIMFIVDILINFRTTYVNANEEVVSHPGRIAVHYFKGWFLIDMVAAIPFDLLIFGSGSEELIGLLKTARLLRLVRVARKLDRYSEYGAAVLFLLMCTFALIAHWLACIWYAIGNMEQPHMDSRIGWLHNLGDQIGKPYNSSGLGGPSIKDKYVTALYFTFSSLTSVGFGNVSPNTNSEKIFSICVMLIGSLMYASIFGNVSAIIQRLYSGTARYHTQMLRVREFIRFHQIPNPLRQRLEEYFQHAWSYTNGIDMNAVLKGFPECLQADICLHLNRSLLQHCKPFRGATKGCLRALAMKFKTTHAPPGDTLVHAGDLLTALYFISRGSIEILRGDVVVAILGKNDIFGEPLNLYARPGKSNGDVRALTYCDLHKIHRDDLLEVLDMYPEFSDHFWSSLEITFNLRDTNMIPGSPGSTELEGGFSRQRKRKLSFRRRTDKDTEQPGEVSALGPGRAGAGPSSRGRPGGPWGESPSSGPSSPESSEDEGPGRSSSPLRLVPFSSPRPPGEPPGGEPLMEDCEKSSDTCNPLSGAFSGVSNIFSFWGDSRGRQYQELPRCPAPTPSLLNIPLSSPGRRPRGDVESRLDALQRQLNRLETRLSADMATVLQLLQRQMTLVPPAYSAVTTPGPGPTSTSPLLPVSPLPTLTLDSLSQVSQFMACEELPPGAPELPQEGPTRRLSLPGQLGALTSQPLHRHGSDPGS
row,SMILES,"hERG current change (%, negative = inhibition) at 1uM"
1,Cn1c(=O)c2c(nc(N3CCc4ccccc4C3)n2C)n(C)c1=O,-3.88%
2,Cc1ccc(N(Cc2ccc(C(=O)NC3CCCCC3)cc2)S(C)(=O)=O)cc1C,2.27%
3,O=C(c1cccc(N2CCCC2=O)c1)N1CCC2(CC1)OCCO2,8.95%
4,O=C1CC(N2CCOCC2)C(=O)N1Cc1ccc(N2CCCC2=O)cc1 (stereo not shown),1.77%
5,COc1cccc(-c2nc(CS(=O)CC(=O)NCCc3ccccc3)c(C)o2)c1 (stereo not shown),12.6%
6,COc1ccc(C2c3ccc4ccccc4c3Oc3ncn(CCO)c(=N)c32)cc1OC (stereo not shown),-13.9%
7,CN(CC/C=C1/c2ccccc2CSc2ccccc21)CCCO.Cl,7.3%
8,Cn1c(=O)[nH]c(=O)c2c1nc(Br)n2Cc1cccc(Br)c1,14.1%
9,Cc1ccc(CSc2nnc(SCC(=O)N/N=C/C=C/c3ccco3)s2)cc1,-0.755%
10,CC(CN(C)Cc1ccccc1)OC(=O)c1cccs1.Cl (stereo not shown),5.59%
11,Cc1cc2nc(CS(=O)(=O)c3ccccc3)cc(=O)n2[nH]1,15.5%
12,Cc1cccc(/N=C/c2c(O)c3ccccc3oc2=O)n1,14.6%
13,CSc1nc2nc(C)c(C/C=C/c3ccccc3)c(=O)n2[nH]1,14%
14,Cc1ccccc1OCC(=O)Nc1ccc2c(c1)n(C)c(=O)n2C,5.59%
15,O=C1CCCC(=O)N1c1ccc(NCCOCCO)c([N+](=O)[O-])c1,8.63%
16,O=C(c1cccs1)N1C(=O)c2cccc3cccc1c23,5.09%
17,CNC(=O)CCC(=O)Nc1ccc(C(=O)OC)cc1,6.66%
18,C=CCn1c(SC(C)C(=O)Nc2ccc(F)c(F)c2F)nnc1C1CC1 (stereo not shown),5.98%
19,O=[N+]([O-])c1ccc(-n2cccn2)c(-c2nn[nH]n2)c1,5.12%
20,O=C(c1ccccc1Br)N1CCN(c2ccc([N+](=O)[O-])c(N3CCOCC3)c2)CC1,6.56%

row,SMILES,"hERG current change (%, negative = inhibition) at 1uM"
1,CCOc1ccc(C(Nc2cccnc2)c2cc(Cl)c3cccnc3c2O)cc1 (stereo not shown),16%
2,CN1CCN(CCCN(Cc2ccco2)C(=S)Nc2ccc(Cl)cc2)CC1,-53.8%
3,COc1ccc(C2C(=O)c3ccccc3C2=O)cc1,3%
4,O=C(CCC(=O)c1ccc[nH]1)c1ccc(Cl)cc1,10.1%
5,COc1ccc(OC)c(C2C(C(=O)Nc3cccnc3)=C(C)NC3=C2C(=O)CCC3)c1 (stereo not shown),15.2%
6,O=C(COc1ccccc1[N+](=O)[O-])NCC1(N2CCCCC2)CCCCC1,-4.91%
7,CCCCC(=O)Nc1ccc(C)c(O)c1,1.66%
8,CN(C)CCCNc1oc(-c2ccccc2Cl)nc1S(=O)(=O)c1ccc(F)cc1,-17.5%
9,Cc1cc(C)cc(N(C(=O)c2nsc(Cl)c2Cl)C(C(=O)NC2CCCC2)c2ccc(O)cc2)c1 (stereo not shown),2.1%
10,Cc1ccnc(NS(=O)(=O)c2cccc3nsnc23)c1.Cl,8.94%
11,O=C(N/N=C/c1ccccn1)c1ccc2nc[nH]c2c1,9.86%
12,CC(CCc1ccccc1)NC(=O)c1ccccc1C(=O)O (stereo not shown),16.2%
13,Cc1cccc(C(=O)NC(=S)N2CCc3ccccc3C2)c1,14.5%
14,CC(C)CC(=O)Nc1nnc(S(=O)(=O)N2CCc3ccccc32)s1,5.56%
15,CN(C)c1ccc(-c2nn3c(C4CCCCC4)nnc3s2)cc1,0.279%
16,CCOC(=O)c1c(NC(=O)CSc2nnc(-c3c[nH]c4ccccc34)n2CCOC)sc2c1CCCCC2,10.5%
17,CCN(C(=O)Cn1cnc2c1c(=O)n(C)c(=O)n2C)C1CCCCC1,7.03%
18,Cc1ccccc1-n1c(-c2ccc(Cl)cc2)cnc1SCC(=O)NC1CCS(=O)(=O)C1 (stereo not shown),5.68%
19,Cc1ccc(C(=O)Nc2ccccc2-c2ccccc2)cc1S(=O)(=O)Nc1cccc(C)c1C,12.8%
20,COc1ccc(N2CC(C(=O)Nc3cccnc3)CC2=O)cc1 (stereo not shown),17.6%

row,SMILES,"hERG current change (%, negative = inhibition) at 1uM"
1,COc1cc(OC)c(-c2cc(C(=O)O)ccc2OC)c(OC)c1,16.7%
2,CCOc1cccc(NC(=O)C(Cc2cccs2)c2nn[nH]n2)c1 (stereo not shown),6.65%
3,Cc1ccc(C)c(N2N=C(C(=O)Nc3nccs3)CCC2=O)c1,15%
4,COc1cc(C(=O)OCC(=O)c2c[nH]c3ccccc23)ccc1OCC(=O)N1CCOCC1,12.7%
5,Cc1ccc(C(CC(=O)N2CCCC2)c2ccccc2)c(O)c1C (stereo not shown),-14.8%
6,O=C(N/N=C/c1ccccn1)c1ccc(Br)cc1,-1.71%
7,S=c1[nH]c2ccccc2n2cccc12,13.8%
8,Cc1ccc(OCC(O)Cn2c(N3CCCCC3)nc3c2c(=O)[nH]c(=O)n3C)cc1C (stereo not shown),15.3%
9,Cc1ccsc1C(=O)OCC(=O)c1ccc(OC(F)F)cc1,-0.891%
10,Cc1cc(-c2nnc(SCC(=O)Nc3ccccc3F)n2N)n[nH]1,16.2%
11,O=C(CSc1ccccc1)NC(=O)NCc1ccccc1,12.9%
12,Cc1onc(-c2ccccc2Cl)c1C(=O)N1CC(C)CC(C)C1 (stereo not shown),3.09%
13,N#Cc1ccc(C(=O)N2CCN(c3ncccn3)CC2)cc1,-4.68%
14,CCS(=O)(=O)C(=C1NCCO1)S(=O)(=O)CC,-1.59%
15,COc1ccc(C)cc1NC(=O)NC(C)c1ccncc1 (stereo not shown),12.8%
16,CNC(=S)N(CCO)Cc1cc2cc3c(cc2[nH]c1=O)OCO3,17.3%
17,CC(=O)c1cccc(S(=O)(=O)Nc2c(C)nn(C)c2C)c1,6.45%
18,COc1cc2nc(CN3CCN(S(=O)(=O)c4ccc(C)c(C)c4)CC3)[nH]c(=O)c2cc1OC,5.69%
